About 170 (0.05%) of roughly 340,000 compounds were called active. Roughly 26% stayed inconclusive and do not appear here. The call rests on the fitted dose curve; in most records, active means well fitted inhibition curve with a large enough effect in the signal ratio, with a control signal flat (not every such curve was filed as active); inconclusive means small, poorly fitted or top-dose-only effect, or effect the other way, or a change in a side signal; inactive means flat fitted curve, though single readings scatter; the % refers to the signal ratio. The entries are a selection whose mix differs from that of the whole data set.
Experiment: qHTS Assay to Find Inhibitors of Chronic Active B-Cell Receptor Signaling;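 on activity change, negative = inhibition: plate controls were basal doxycycline-induced cells for no effect and cells given 10 µM MG132 for full effect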
Details: ABC-DLBCL IkBa-CBG/CBR reporter, luminescence ratio (green luciferase fused to IkBa over red control in TMD8 lymphoma cells), 4 h; series mostly up to 46.1 µM; activity change, negative = inhibition: at the top concentration
Method in brief: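 Doxycycline induced both beetle luciferases in TMD8 lymphoma cells; IKK-driven degradation limits the IkappaBalpha-fused green signal, while red luminescence normalises for cell number and nonspecific effects. Compounds tested up to 46 uM, 4 hrs.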
Potency means the concentration at half of the fitted maximal effect.

Activity change, negative = inhibition, inactive:
O=C(CCCN1C(=O)/C(=C/c2cccs2)SC1=S)Nc1cccnc1 -13.8%, COC(=O)C1=C(C)N(Cc2ccccc2)C(=NCCN2CCOCC2)N[C@H]1CCc1ccccc1 9.5%, CC1OC(OCC2OC(Oc3c(-c4ccc(O)cc4)oc4cc(O)cc(O)c4c3=O)C(O)C(O)C2O)C(O)C(O)C1O (configuration not stated) -19.4%, CCS(=O)(=O)NCC(c1ccco1)N1CCN(c2ccccc2)CC1 (configuration not stated) -9.63%, C=CC[C@@H](CC(=O)N(CCO)Cc1ccccc1)C(=O)N[C@@H](C)COC(=O)[C@@H](CC=C)Cc1ccc(F)cc1 -4.6%, C#CCNC(=O)C1=C[C@@H](c2cn(C(C)=O)c3ccccc23)C[C@@H](OCc2ccc(CO)cc2)O1 11.8%, O=C(O)/C=C\C(=O)NCc1ccccc1 -5.63%, Fc1ccc(SCCc2ccccn2)cc1 -3.64%, COc1ccc(CCN2CC(C(=O)NCCc3ccccc3)CC2=O)cc1OC (configuration not stated) 0.2%, O=C1NCCOC(=O)[C@@H](Cc2ccc(F)cc2)C/C=C\C[C@@H]1CC(=O)N(CCO)Cc1ccccc1 -0.0053%, O=C(O)/C=C\C(=O)Nc1ccc(Oc2ccccc2)cc1 3.48%, O=C1N[C@@H](Cc2ccccc2)COC(=O)[C@H](Cc2ccc(F)cc2)C/C=C\C[C@@H]1CC(=O)N(CCO)Cc1ccccc1 1.72%, CCO[C@H]1OC(C(=O)Nc2ccccc2)=C[C@@H](C2CC2)[C@@H]1CCCO 20%, C=C(C)[C@H]1CC=C(C)/C(=N/NC(=O)CNc2ccccc2OC)C1 -0.619%, COC(C[C@@H]1O[C@H]1[C@@H](O)COCc1ccccc1)OC -2.38%, C#CCNC(=O)C1=C[C@@H](c2coc3ccccc3c2=O)C[C@@H](OCCCCO)O1 10.2%, C/C=C(/C)C(=O)O[C@@H]1Cc2c(ccc3ccc(=O)oc23)OC1(C)C -3.74%, C=CCc1cc(OC)ccc1OCC(O)CN1CCN(c2ccc(OC)cc2)CC1 (configuration not stated) -8.14%, O=C1CC[C@@H](C(=O)O)N1 0.189%, COC(C[C@H]1O[C@H]1[C@@H](O)[C@H](C)OCc1ccccc1)OC 3.81%, C[C@@H]1CC[C@@]2(O[C@H](CCO)C[C@H](O)[C@H]2O)O1 0.937%, CCOC(=O)C1CCN(C(=O)c2ccc3c(=O)n4nc(Nc5cc(C)ccc5C)sc4nc3c2)CC1 -13.3%, COc1ccc(CNC(=O)CN2C(=O)CSc3ccc(S(=O)(=O)N4CCOCC4)cc32)c(OC)c1 7.92%

Potency, inactive:
COCCCC/C(=N\OCCN)c1ccc(C(F)(F)F)cc1

Potency, active:
Cc1ccc(CNC(=O)c2c(Nc3ccccc3C)sc(C(=O)c3ccc(F)cc3)c2N)cc1 22.4 µM, CC1=CC(C)(C)N(S(=O)(=O)c2ccc(C)cc2)c2ccccc21 23.1 µM, O=c1cc(-c2ccccc2)[nH]c2ccccc12 11.2 µM

Source: PubChem BioAssay AID493014 (National Center for Advancing Translational Sciences (NCATS), 2011)
